Hit rate of the full screen: of about 52,000 compounds, about 1,700 (3.3%) were called active. Rule as the data show it: active = survival mostly below about 52% (no sharp cut-off); inactive = mostly above about 56%. The list shows a part of the results.
The molecules below were run on Wild type (assay: S. aureus survival, RN4220 and DeltatarO strains – OD600, teichoic acid synthesis inhibitors, primary screen (AID 463173)). Conditions: S. aureus RN4220 wild type/DeltatarO growth, OD600, 18 h, stronger effect = lower value, screened at 18.75 µg/mL (by protocol).

| SMILES | survival |
| --- | --- |
| Cc1cccc(-n2ncc3c(NNC(=O)c4ccccc4Cl)ncnc32)c1 | inactive: 75% |
| COc1ccc(-c2ccc(=O)n(CC(=O)Nc3cc(OC)ccc3OC)n2)cc1 | inactive: 59% |
| CCCc1oc(C(=O)O)cc1CN1CCOCC1 | inactive: 117% |
| O=c1[nH]c(C2CCCN(S(=O)(=O)c3ccccc3)C2)nc2c1nnn2Cc1ccccc1Br (stereo not drawn) | inactive: 101% |
| CCOC(=O)c1cccc(NC(=O)Nc2c(C)n(C)n(-c3ccccc3)c2=O)c1 | inactive: 78% |
| CCCCN(CC)CCCNC(=O)c1cn(C)c(=O)c2c1c1ccccc1n2C | inactive: 133% |
| Cc1cccc(C)c1NC(=O)Cn1cc(C(=O)C2CC2)c2ccccc21 | inactive: 68% |
| Cc1nn(CCC(=O)Nc2cccc(C#N)c2)c(C)c1S(=O)(=O)N1CCCCC1 | inactive: 85% |
| COc1cccc(C(=O)Nc2nnc(S(=O)(=O)N3CCCc4ccccc43)s2)c1 | inactive: 20% |
| Cc1ccc(C)c(CN2C(=O)c3ccccc3S(=O)c3ccc(C(=O)N4CCCCC4)cc32)c1 (stereo not drawn) | inactive: 103% |
| COc1ccc(OC)c(S(=O)(=O)NCCS(=O)(=O)N2CCN(c3ccccc3F)CC2)c1 | inactive: 76% |
| CCS(=O)(=O)NCCc1csc2nc(-c3ccc(OC)cc3)nn12 | inactive: 60% |
| CCc1cnc2c(c1SCc1cc(OC)cc(OC)c1)c(=O)n(C)c(=O)n2C | inactive: 83% |
| CSc1ncc(C(=O)NCc2cccc(C)c2)c(-c2ccccc2)n1 | inactive: 65% |
| COc1ccccc1/C=C/C(=O)Nc1nc2n(n1)C(c1ccc(F)cc1)C=C(c1ccccc1)N2 (stereo not drawn) | inactive: 74% |
| Cc1ccc(OCCn2c(C3CC(=O)N(Cc4ccc(F)cc4)C3)nc3ccccc32)c(C)c1 (stereo not drawn) | active: -15% |
| O=C(Nc1ccccn1)C(=NO)C(=O)Nc1ccccn1 | inactive: 111% |
| O=S(=O)(NCC(c1ccccc1)N1CCc2ccccc21)c1ccc(Cl)cc1 (stereo not drawn) | inactive: 81% |
| C=CCc1ccccc1OCCSc1nc(-c2ccccc2F)nc2cc(=O)[nH]n12 | inactive: 80% |
| Cc1cccc(N2CCN(c3nc4ccccc4c4nnc(C)n34)CC2)c1C | inactive: 98% |

| SMILES | survival |
| --- | --- |
| COc1ccc(CNC(=O)Cn2cccc2C(=O)c2ccccc2C)cc1 | inactive: 86% |
| CCN(CC)C(=O)c1sc2c(c1C)c(=O)n(-c1ccc(OC)cc1OC)c(=O)n2CC(=O)Nc1ccccc1 | inactive: 89% |
| COc1ccc(C(=O)c2cn(Cc3ccccc3OC)c3cc4c(cc3c2=O)OCO4)cc1 | inactive: 79% |
| Cc1cccc(NC(=O)c2c(NC(=O)c3ccccc3)sc3c2CCC3)c1 | inactive: 80% |
| Cc1cc(C)cc(-n2ccnc2SCC(=O)Nc2ccccc2F)c1 | inactive: 83% |
| COc1ccc(OCC(=O)NCc2ccc3c(c2)CCN3C(=O)c2cccc(C)c2)cc1 | inactive: 72% |
| CC(=O)N1CCCC1c1nc2ccccc2n1Cc1cccc(C)c1 (stereo not drawn) | inactive: 85% |
| CSc1ccc(CCNC(=O)c2ccc(-n3c(C)cc4c3CCC(C)C4)cc2)cc1 (stereo not drawn) | inactive: 152% |
| COc1ccc2c(c1)c(CC(=O)Nc1c(C)cccc1C)c(C)n2C(=O)c1ccc(Cl)cc1 | inactive: 80% |
| Cc1cc(C)cc(NC(=O)CCn2cnc3ccccc3c2=O)c1 | inactive: 90% |
| CCOc1ccccc1NC(=O)Cn1c(=O)n(-c2ccc(C)cc2)c(=O)c2c1cnn2C | inactive: 70% |
| CCc1cccc(NC(=O)CC(c2ccc(OC)cc2)N2Cc3ccccc3C2=O)c1 (stereo not drawn) | inactive: 73% |
| Cc1cc(C(=O)Nc2ccccc2C(=O)O)c(C)o1 | inactive: 83% |
| CC(C)c1ccc(C2NC(=O)c3c(sc4c3CCN(C)C4)N2)cc1 (stereo not drawn) | inactive: 71% |
| CCOc1ccc(N(CC(=O)OC)S(=O)(=O)c2ccc3c(c2)n(C)c(=O)c(=O)n3C)cc1 | inactive: 64% |
| CCC(C)NC(=O)Cn1c(=O)n(-c2ccc(Cl)cc2)c(=O)c2c3c(sc21)CCCC3 (stereo not drawn) | inactive: 89% |
| COc1ccc(NC(=O)c2ccc(NC(=O)CCS(=O)(=O)c3cccs3)cc2)cc1Cl | inactive: 81% |
| Cc1ccc(-n2nnnc2SCC(=O)NCCc2ccccc2)cc1C | inactive: 60% |
| CCCCC(=O)OC1=CN(Cc2ccccc2)S(=O)(=O)c2ccccc21 | inactive: 114% |
| CC(=O)Nc1ccc(NCc2cccs2)cc1 | inactive: 98% |

| SMILES | survival |
| --- | --- |
| Clc1cccc(-c2cc3nc4c(c(N5CCCCC5)n3n2)CCCC4)c1 | inactive: 105% |
| Cc1ccc(C)c(N2CCN(C(=O)c3c(C)oc4nc(C)nc(N5CCOCC5)c34)CC2)c1 | inactive: 82% |
| CCc1nnc(NC(=O)CSc2nccn2Cc2ccc(Cl)cc2)s1 | inactive: 77% |
| CCCc1nnc(SCc2cc(=O)c3c(C)cc(C)cc3[nH]2)n1C | inactive: 66% |
| C=CCC(CC=C)(CNC(=O)C(=O)Nc1ccc(Br)cc1)c1ccc(OC)c(OC)c1 | inactive: 90% |
| Cc1ccc(OCCCn2c(-c3ccc(Cl)cc3)nc3ccccc3c2=O)cc1C | inactive: 65% |
| O=C(Nc1ccc(F)cc1F)C1CCN(C(=O)c2cnn(-c3ccccc3)c2-n2cccc2)CC1 | inactive: 129% |
| O=C(NCC(c1ccc2c(c1)OCO2)N1CCN(c2ccccc2)CC1)c1ccc(F)c(F)c1 (stereo not drawn) | inactive: 68% |
| O=C(O)CNc1ccc2nncn2n1 | inactive: 103% |
| O=C(NCc1cccc(Cl)c1)c1cnc(N2CCOCC2)c2ccccc12 | inactive: 68% |
| Cn1cccc1-c1cc2n(n1)CCC(=O)N2CCCC(=O)NCc1cccc(Cl)c1 | inactive: 87% |
| CCN(CC)C(=O)CSc1nnc2c3ccccc3n(C)c2n1 | inactive: 112% |
| CCc1ccc(CNC(=O)Cn2nc(C)c3nn(-c4ccc(Cl)cc4)c(C)c3c2=O)cc1 | inactive: 74% |
| CCOc1ccc(NS(=O)(=O)c2c(C)nc3sc(CC)nn3c2=O)cc1 | inactive: 76% |
| COCCNC(=O)c1ccc2c(c1)ncn2-c1cc(C)ccc1OC | inactive: 73% |
| Cc1ccc(C)c(NC(=O)c2nc(S(=O)(=O)Cc3ccc(F)cc3)ncc2Cl)c1 | inactive: 109% |
| CCCn1c(N2CCN(CC(=O)NCc3cccs3)CC2)nc2ccccc21 | inactive: 114% |
| Cc1nnc(NC(=O)CSc2nccn2Cc2ccccc2)s1 | inactive: 88% |
